Measurements as given in PubChem BioAssay AID1159614 (National Center for Advancing Translational Sciences (NCATS), 2016).
The whole screen tested about 45,000 compounds, of which about 65 (0.1%) were called active. Calls come from the whole dose curve; as a rule, active = well fitted activation curve with a large enough effect; inconclusive = small, poorly fitted or top-dose-only effect; inactive = no such curve, though single readings can be large or run the other way. Some of the results follow.

Each compound was assayed against Galactocerebrosidase (Homo sapiens) (UniProt P54803) (assay: A Novel Cell-Based Assay to Identify Small Molecules for B -Galactocerebrosidase). Conditions: 145M-Twi-hGALC-G270D cells, HMU-beta-Gal fluorescence, 48 h; series mostly up to 57.5 µM; activation: at the top concentration.
Outline: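 qHTS, 1536-well; 145M-Twi-hGALC-G270D cells (WT line also made) in DMEM/F12 + 10% FBS; compound incubation on live cells; HMU-β-gal 0.1 mM final, pH 5.2, NaTC; carbonate stop; fluorescence increase = enhanced residual activity.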
Note: 0% is about no effect; nearly all actives have a fitted effect of over 65% in size.

Sequence of UniProt P54803 (P54803 whole entry, looked up): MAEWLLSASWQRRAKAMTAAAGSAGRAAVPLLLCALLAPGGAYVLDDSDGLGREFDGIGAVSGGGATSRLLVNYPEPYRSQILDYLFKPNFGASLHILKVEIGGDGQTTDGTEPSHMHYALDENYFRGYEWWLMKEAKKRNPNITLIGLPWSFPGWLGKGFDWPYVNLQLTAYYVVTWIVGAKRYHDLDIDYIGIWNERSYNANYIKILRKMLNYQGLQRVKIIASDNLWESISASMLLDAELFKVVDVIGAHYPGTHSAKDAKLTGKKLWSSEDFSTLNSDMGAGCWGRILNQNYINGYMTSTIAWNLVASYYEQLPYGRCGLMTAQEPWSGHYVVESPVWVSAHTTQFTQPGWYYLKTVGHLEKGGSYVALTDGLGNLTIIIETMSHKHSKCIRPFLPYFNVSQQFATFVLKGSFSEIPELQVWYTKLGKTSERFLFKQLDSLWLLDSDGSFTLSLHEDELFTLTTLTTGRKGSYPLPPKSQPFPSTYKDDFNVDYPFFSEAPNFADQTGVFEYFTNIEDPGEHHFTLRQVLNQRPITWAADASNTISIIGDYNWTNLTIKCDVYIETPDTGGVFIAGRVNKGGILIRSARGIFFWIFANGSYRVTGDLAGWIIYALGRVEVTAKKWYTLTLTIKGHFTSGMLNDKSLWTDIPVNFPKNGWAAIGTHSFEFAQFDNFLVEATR

activation, inactive:
COc1ccc(NC(=O)NC(C)c2c(-n3cccc3)sc(C)c2C)cc1OC (configuration not stated) -3.7%
CCN(CC)CCCNC(=O)c1ccc2c(c1)sc1nc(-c3ccc(C)cc3)cn12 -9.53%
CCOc1c(Cl)cc(CNc2ccc3[nH]c(=O)[nH]c3c2)cc1OC -8.66%
CCOc1ccc(CNC(=O)c2ccc(NC(=O)N3CCCCc4ccccc43)cc2)cc1 -8.39%
Cc1c(NC(=O)Cc2ccc(Cl)cc2)cccc1-c1nc2cccnc2s1 -8.21%
CCOC(=O)c1c(C)[nH]c(C)c1S(=O)(=O)NCC(=O)Nc1cccc(Cl)c1 -3.09%
O=C(NCCO[N+](=O)[O-])c1cccnc1 -15.9%
CCOC(=O)c1c(S(=O)(=O)N2CCCC(C(=O)Nc3cccc(CC)c3)C2)c(C)n(CC)c1C (configuration not stated) 5.84%
Cc1cccc(OC(=O)CSc2nnc(-c3cccs3)o2)c1C -5.16%
CSc1ncc(Cl)c(C(=O)Nc2c(C(=O)c3ccc(Cl)cc3)oc3ccccc23)n1 -10.9%
Cc1ccc(-n2ncc(C(=O)N3CCN(c4ccccc4F)CC3)c2C2CCN(C(=O)OC(C)(C)C)CC2)cc1C 7.95%
Cc1ccccc1Nc1c(-c2c[nH]c3ccccc23)nc2ccc(Cl)cn12 1.97%
O=C(CSc1nc(Nc2ccccc2)c2ccccc2n1)c1ccc(Cl)cc1 -15.1%
Cc1ccc(Cl)c(Nc2ccccc2C(=O)O)c1Cl -20.3%
Cc1cc(C)cc(NC(=O)NCc2c(-n3cccc3)sc3c2CCCC3)c1 -13.4%
Cc1c(CNC2CCCCCC2)c(C(=O)O)c(C)n1Cc1cccc(Cl)c1 -1.8%
Cc1cccc(CNC(=O)Cn2nc(C)c3nn(-c4ccc(Cl)cc4)c(C)c3c2=O)c1 -14.3%
Cc1cccc(N2CCN(C(=O)CCS(=O)(=O)c3ccc4c(c3)CC(=O)N4C)CC2C)c1 (configuration not stated) -7.77%
CCCCOC(=O)c1ccc(NC(=O)c2ccc3c(c2)CCN3S(C)(=O)=O)cc1 -9.54%
Cc1cccc(C(c2sc3nc(-c4ccco4)nn3c2O)N2CCOCC2)c1 (configuration not stated) -8.46%
Cc1ccc(NS(=O)(=O)c2ccc3c(c2)n(C)c(=O)n3C)c(C)c1 -20.3%
CC(=O)N1CCN(c2csc3ccc(Cl)cc3c2=O)CC1 -5.38%
COC(=O)c1scc(-c2ccc(C)cc2)c1S(=O)(=O)Nc1cc(C)c(Cl)cc1OC 6.65%
Clc1cccc(CNCCCSc2nnnn2-c2ccccc2)c1 -1.31%
CCOc1ccccc1NC(=O)Cn1c(=O)oc2ccccc21 -2.56%
COc1ccc(-c2noc(N3CCC(C(=O)N4CCN(c5cccc(OC)c5)CC4)CC3)n2)cc1 -6.58%
CCOC(=O)c1c(-c2ccccc2)oc2ccc(OCc3ccccc3Br)cc12 -11.7%
COc1ccc(NC(=O)Cn2cc(C(=O)c3ccc(C)c(C)c3)c(=O)c3cc(OC)ccc32)cc1 -2.24%
CCNc1nc2c(c(=O)n(C)c(=O)n2C)n1Cc1ccc(F)cc1 -15.8%
O=C(NCCc1cccs1)c1ccc(Cn2c(SCc3cccc(F)c3)nc3cccnc32)cc1 -9.5%
Fc1cccc(CN2CCc3nc(Nc4ccc5c(c4)OCCO5)ncc3C2)c1F -4.96%
O=C(Cn1cc(C(=O)c2ccco2)c2ccccc21)Nc1ccccc1C(F)(F)F -43.8%
COc1ccc(-c2csc3ncnc(Nc4ccccc4)c23)cc1 -15.2%
Cc1ccc(CSC2=NC(C)(C)Nc3ccccc32)c(C)c1 13.2%
Cc1ccccc1S(=O)Cc1ccc(C(=O)NCc2ccccc2Cl)o1 (configuration not stated) -26.9%
COc1cccc(NC(=O)Cn2c(=O)n(CCC(=O)NCc3ccccc3OC)c(=O)c3ccccc32)c1 -8.36%
COc1ccc(Cl)cc1NC(=O)Cn1c(=O)n2nc(-c3ccccc3)nc2c2ccccc21 -7.8%
COc1cc(C2C=C(C(=O)O)Nc3ncnn32)ccc1O (configuration not stated) -7.2%
CCOc1ccc2c(c1)c(=O)c(C(=O)c1ccc(CC)cc1)cn2CC(=O)Nc1ccc2c(c1)OCCO2 -13.3%
COC(=O)c1c(C)oc2ccc(N(C(=O)c3ccncc3)S(=O)(=O)c3ccc(Br)cc3)cc12 -10.9%
COc1ccc(CNC(=O)c2nn(C)c3c2CSc2ccccc2-3)cc1 -0.576%
COc1ccc(CNS(=O)(=O)c2ccc(-c3cc(C(F)(F)F)on3)s2)cc1OC -27.4%
O=C(Nc1cccc(F)c1)c1cnc2sc(N3CCCC3)nn2c1=O -8.3%
COc1ccc(-c2csc(-c3c(N)c(C(=O)c4ccc(OC)c(OC)c4)n4ccccc34)n2)cc1 -2.46%
CCN1CCc2c(sc(-n3cccc3)c2C(C)NC(=O)Nc2ccc(C(=O)OC)cc2)C1 (configuration not stated) -16.2%
COc1ccc(C)c2sc(N(Cc3cccnc3)C(=O)c3cccs3)nc12 -2.92%
Cc1ccc(NC(=O)Cn2cc3c(n2)CCCC3)cc1Cl -5.25%
CCN1CCN(C(=O)N[C@@H](C(=O)N[C@@H]2C(=O)N3C(C(=O)O)=C(CSc4nnnn4C)CS[C@H]23)c2ccc(O)cc2)C(=O)C1=O -12.3%
COc1ccc(N(C)S(=O)(=O)c2ccc3c(c2)CCN3C(=O)CCC(=O)O)cc1 -14.8%
CCOC(=O)c1ccc(N2C(=O)c3n[nH]c(-c4ccco4)c3C2c2ccccc2OC)cc1 (configuration not stated) -15.1%
Cc1ccc(NC(=O)Cn2c(=O)n(Cc3ccccc3)c(=O)c3c(C)c(C(=O)N(C)C)sc32)c(C)c1 -12.3%
COc1ccc(NC(=O)c2ccco2)cc1NC(=O)c1ccccc1[N+](=O)[O-] -10.6%
CCc1cccc(C)c1Nc1nn2c(=O)c3ccccc3nc2s1 -13.7%
Cn1c(SCc2ccc(F)cc2)nc2ccc(C(=O)NCc3cccc(Cl)c3)cc21 -11.8%
Cc1ccc(N(Cc2cccs2)C(=O)c2ccc(OC(C)C)cc2)cc1 -12%
COc1ccc2c(CNC3CCC(C)CC3)c(C(=O)O)n(Cc3ccc(F)cc3)c2c1 (configuration not stated) -6.05%
COc1cccc(OCCSc2nc3ccccc3n2CC(=O)N2CCOCC2)c1 1.38%
CCOc1ccccc1C(=O)NCc1ccc2c(c1)CCN2C(=O)c1ccc(F)cc1 -0.249%
Cc1cc(=O)n2nc(N3CCC(C(=O)Nc4ccc(Br)c(C)c4)CC3)sc2n1 -15.6%
O=S1(=O)OC(c2ccc(O)cc2)(c2ccc(O)cc2)c2ccccc21 -7.33%
COCCNC(=O)c1ccc(Cn2c(SCC(N)=O)nc3ccccc3c2=O)cc1 3.21%
COc1cc2nc(NCCc3cccc(C)c3)n3nc(-c4ccccc4)nc3c2cc1OC -4.44%
